Results taken from the supplement of paper PMC12632987.
Over roughly 4,500 sequences, “median log2 fold change of GCK-ALFA target abundance (FLAG IP / Myc IP barcode read proportion)” has its median near 0.078; the lowest 2% begin near -0.6. The list shows a part of the results.

B1: GBRAP_52_6172 (protein)
chain: AAAEAAARAAALLAAVRAGDEARVRALIREIAETMSDAEIAATLDAIAAAVPALSPEDQERVVEAALELEDVAEAAGHDPEILDVAVARVAGAAYDALQA
B2: GBRAP_80_6845 (protein)
chain: AEARLAAALAELKALLPEVAADIEEAVELAKELGVPDEDIADLLEALAELAKLDPEKAAELIKELLEDLKELKKEGDSEGALAVVRGYAGLALMEAEELE
B3: GBRAP_125_3035 (protein)
chain: SMEQDIEDLGLLARALGLSEEDVEELKELARRHGVKGTLIALLLAEGWEEIAELAEKLSEEEVIEVLKELAEYLEKHPDLTPEEVKEKLKELLEKAVEKS
B4: GBRAP_52_6346 (protein)
chain: MEEKLKKLAEELVELVKEGKLEEARKKAKEIVETLSEEEIEKLAEELAKLAKTADKETAEAILEAAEILADEMIEAGYDEYKASYLLALVGKAVYENLQK
B5: GBRAP_9_7148 (protein)
chain: MEELIEKMEEIFRDMVALVREIVPPEVHPVVDAMEEEARERFEEMREDEEITEEEAVEEAKELVRDFRDAVAARVDPETARMVDAVALTAELEIEELREE
B6: GBRAP_139_3700 (protein)
chain: SELEKKIEEARELTRKMEENPEESIEKIVELIKNSSLEEAEKIVEAIAEELSKLPLDKAEEYADKILEKVEEEIEDEDKVDLVEAILNGALARKAYEEEL
B7: GBRAP_184_5174 (protein)
chain: KVLEFTVRAENVEEMRAKMAEIAAAVAGTNADLYIIVETPEVTVEMARALMDGVAAIKAAGYATRITVHVTGDVDEEVADVLVERARAAGVQVVLALKEE
B8: GBRAP_35_5609 (protein)
chain: DSMKETVEMLVATIEDLTLAVPDMPVEDLVAITTQLVDSAEKVIDELTDDKEGAEKLLKALEKLLKALEKYHGDDPLAQEAIKRVKEAIEKAKKRIEEIK
B9: GBRAP_160_4399 (protein)
chain: SEEYEKLKKEVKEIFEEAIKLIEGETPEQRKTIIRVSFGDVILEAIENEGISDEEEEEIDKILDEYEEKALKAVEEGLEAVIEVLKEAEEKVLKKIEELE
B10: GBRAP_11_2625 (protein)
chain: EKEIKKKMAELAKKLAELLEKLLKEGVDNEELIKEAEKTLKELKELVEKYGDEAEKKQVEILEEEFEKSLKDKENAEKYFEEALAAARVLAGDYLLEIEE
B11: GBRAP_39_5670 (protein)
chain: EEEEELELEVSYLEAVAAKYLYETGISLEEAYKEAKKILKEYAKKHPELKELVEELIKLADEKGEEAKLVAIGVAKLIEEGAPLEEIKEKIEKAVEYFKS
B12: GBRAP_160_4169 (protein)
chain: SEKVEKAKEEINEIFDEAKAMIVGQTAAERAAIVAVAFGEIILLLEEMGLLTDELDKTIRELEDELVSTILANPDLTDAEITALLNEAKEKLFEALEKSS
B13: GBRAP_11_2807 (protein)
chain: KKEKLEEALKLAEEAAKAVEKLLKEGVDNEELLKKIEKLLEELEKLAKEYLDEGSQKLVEIAKELLEKAKADPENAKAYLEQLLATLRVLAGNIQLEIEE
B14: GBRAP_159_3961 (protein)
chain: MEEKLKALAEELRKLGASEEIIETFVEALELELEGEPKESVAAYLLHAYSTLGASVEQILKALSFLSPETAKYVAEVLADYAKEQGKEEDAKKFEEFLEK
B15: GBRAP_128_3179 (protein)
chain: SLEEVKKRTREAMERIKNSSPEEARRIAEELFEWLKTLSLEEAEAAVEEILKLLPELTPEHLEILADVAREMRPLYTPEKQELVAELEVEALNRLEELEE
B16: GBRAP_117_2598 (protein)
chain: SMTEEEAKKLVKEAVELIKEAIKKQKELSPEEAKKLKEETLKKLTEIVEKLLELVDYDTLEELFAEALKPLSPEEQVQAYILWEEALAEAEERRKEEEEA
B17: GBRAP_52_6263 (protein)
chain: MREELRAAAEEIFNLVKAGRLEEARALARELVESLDEEELELFIEEFAELAKTIKKEEIPYMEKTTEIVAEEMEEAGVPEELVSLFEARSYGALYEREQK
B18: GBRAP_78_6728 (protein)
chain: ELEELIEKAIEHLNEAAKLASKLPLEEGNEILDLLVDAITDLEEAEEEGGDLELLEEALKHVEKALELAKKLNLPEAKELAEELEKAKELLKKAIELAKK
B19: GBRAP_196_5417 (protein)
chain: SALAEIEKLEAESAAETKGKKLGDWTIVMAATPENLEKVAKETAEIAKDLGNPTIELVVPGTLEEALKALKLLREELKKAGVVSEIRVASEAIEAAKAAA

Target: GABARAP, O95166
Sequence (O95166 whole entry, the tested form may be a part): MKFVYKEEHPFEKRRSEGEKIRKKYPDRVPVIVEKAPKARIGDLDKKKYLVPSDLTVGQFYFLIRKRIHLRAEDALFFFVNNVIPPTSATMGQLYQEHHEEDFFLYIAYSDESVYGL
Experiment: median log2 fold change of GCK-ALFA target abundance (FLAG IP / Myc IP barcode read proportion) (log2 ratio); each designed protein is fused to an ALFA-tag nanobody in HEK293 cells to bring the named protein to FLAG-tagged glucokinase (GCK); Myc marks an untargeted standard; higher = target protein stabilised (more abundant)
Conditions: target protein: 3xFLAG-MCP-GCK-ALFA reporter; HEK293 landing pad (RPLP)
In short: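 The readout is target abundance, the per-binder median log2 ratio of FLAG to Myc barcode read proportions. It came from HEK293 landing-pad cells carrying a recombined ALFA-nanobody-fused binder library, induced with 2 μg mL^−1 doxycycline and transfected with a plasmid for a FLAG-tagged target and a Myc-tagged standard. After 48 h, lysates were immunoprecipitated with anti-FLAG and anti-Myc, and circular RNA barcodes were reverse transcribed, amplified and sequenced. Each barcode needed a proportion of at least 10^−7 in both replicates and each binder at least 3 barcodes per replicate, a pseudocount of 10^−6 was added, and the replicates were pooled.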

| Binder | median log2 fold change |
| --- | --- |
| B1 | 0.00144 |
| B2 | -0.057 |
| B3 | -0.193 |
| B4 | -0.0218 |
| B5 | -0.342 |
| B6 | 0.139 |
| B7 | -0.0716 |
| B8 | 0.354 |
| B9 | -0.425 |
| B10 | 0.332 |
| B11 | 0.137 |
| B12 | -0.285 |
| B13 | 0.383 |
| B14 | 0.177 |
| B15 | 0.209 |
| B16 | 0.263 |
| B17 | -0.308 |
| B18 | 0.131 |
| B19 | 0.256 |
